In article PMC6919601, “Identification of Plasmodium dipeptidyl aminopeptidase allosteric inhibitors by high throughput screening” (PLoS ONE, 2019):
Hit rate of the full screen: of about 110,000 compounds, about 230 (0.21%) showed an effect of 50% or more. The list shows a part of the results.
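Further: 30 min substrate incubation versus DMSO and 10 µM JCP410 controls.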

The compounds below were run against DPAP1 (Plasmodium falciparum, UniProt Q8IIJ9) (assay: primary screen, percent inhibition; read by cleavage of a fluorogenic dipeptide substrate; higher = more effect of the substance).
Chain of DPAP1 (Q8IIJ9 whole entry, looked up): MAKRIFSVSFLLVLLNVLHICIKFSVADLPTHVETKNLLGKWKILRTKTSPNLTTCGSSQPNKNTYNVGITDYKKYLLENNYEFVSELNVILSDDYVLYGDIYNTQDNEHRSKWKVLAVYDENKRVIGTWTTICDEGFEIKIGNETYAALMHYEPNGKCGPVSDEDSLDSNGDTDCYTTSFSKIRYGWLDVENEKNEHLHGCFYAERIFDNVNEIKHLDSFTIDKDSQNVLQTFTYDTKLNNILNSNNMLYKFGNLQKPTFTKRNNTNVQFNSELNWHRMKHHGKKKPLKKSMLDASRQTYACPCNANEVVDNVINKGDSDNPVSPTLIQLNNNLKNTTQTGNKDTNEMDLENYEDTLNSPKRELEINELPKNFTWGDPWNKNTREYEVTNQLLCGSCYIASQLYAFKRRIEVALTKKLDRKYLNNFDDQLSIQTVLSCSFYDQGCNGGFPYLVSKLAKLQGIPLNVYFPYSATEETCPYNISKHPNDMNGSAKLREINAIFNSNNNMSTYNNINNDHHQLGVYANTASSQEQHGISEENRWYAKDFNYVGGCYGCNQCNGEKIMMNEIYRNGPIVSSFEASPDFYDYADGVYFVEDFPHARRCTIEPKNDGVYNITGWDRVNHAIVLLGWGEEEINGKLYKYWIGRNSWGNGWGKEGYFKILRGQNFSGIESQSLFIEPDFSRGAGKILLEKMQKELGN
Parameters: species or system P. falciparum D10 trophozoite lysates; single well
In the case of `CCn1c(-c2ccco2)nc2ccccc21`, the “% Inhibition @ 10 uM” value was -0.764%. In the case of `CCOc1ccc(CCNC(=O)C(C)n2sc3ccccc3c2=O)cc1` (stereo not shown), the “% Inhibition @ 10 uM” value was -3.93%. In the case of `CC(=O)N1CCC(N2CCC(Cc3ccccc3)CC2)CC1`, the “% Inhibition @ 10 uM” value was -3.57%. In the case of `NC(=O)c1ccccc1NC(=O)COc1ccc2ccccc2c1Br`, the “% Inhibition @ 10 uM” value was 4.65%. For `Cc1ccc(C)c(Cn2c(C)c(CNCCc3ccc(Cl)cc3)c(C(=O)O)c2C)c1`, the “% Inhibition @ 10 uM” value was -1.92%. `N#CC1=C(N)SC(N)=C(C#N)C1c1ccc(Cl)cc1` was tested, and the “% Inhibition @ 10 uM” value was 50.8%. With `O=C1CC(NC2=NCCCCC2)=NN1c1ccccc1` the “% Inhibition @ 10 uM” value was 0.964%. With `COc1ccc(OC)c(C2c3cc(OC)c(OC)cc3CCN2C)c1` (stereo not shown) the “% Inhibition @ 10 uM” value was 0.774%. For `CN1CCN(C(=O)Nc2cccc(Cl)c2)CC1`, the “% Inhibition @ 10 uM” value was -5.61%. In the case of `CCOC(=O)c1c(C)nc2c(c1-c1ccc(OC)c(OC)c1)C(=O)c1ccccc1-2`, the “% Inhibition @ 10 uM” value was -5.11%. `O=C(CCn1ccc2cc(S(=O)(=O)N3CCCCCC3)ccc21)N1CCC2(CC1)OCCO2` was tested, and the “% Inhibition @ 10 uM” value was 5.77%. For `N=c1c(S(=O)(=O)c2ccccc2)cc2c(=O)n3ccccc3nc2n1Cc1ccco1`, the “% Inhibition @ 10 uM” value was 6.64%. In the case of `COc1cccc(NC(=O)c2cnn(-c3ccccc3)c2C)c1`, the “% Inhibition @ 10 uM” value was 2.64%. In the case of `COC(=O)c1sccc1NC(=O)NCc1noc2ccc(C)cc12`, the “% Inhibition @ 10 uM” value was 3.25%. For `CC(=O)c1cccc(NC(=O)CCCOc2ccc(Cl)cc2C)c1`, the “% Inhibition @ 10 uM” value was -0.641%. With `Cn1c(=O)c2c(nc(N3CCOCC3)n2CC(=O)c2ccccc2)n(C)c1=O` the “% Inhibition @ 10 uM” value was 2.44%. With `COc1cccc(-c2nc(CS(=O)(=O)CC(=O)NC3CCCCCC3)c(C)o2)c1` the “% Inhibition @ 10 uM” value was -0.138%. In the case of `CC1=C(C(=O)OCC(F)(F)C(F)(F)F)C(c2ccc3c(c2)OCO3)NC(=O)N1` (stereo not shown), the “% Inhibition @ 10 uM” value was -4.77%. For `COc1ccccc1N1CCN(C(=O)Nc2cccc3ccccc23)CC1`, the “% Inhibition @ 10 uM” value was 0.35%. For `CCc1cccc2c(O)c(C(=O)O)cnc12`, the “% Inhibition @ 10 uM” value was -3.2%. For `CCC(C)NC(=O)NCc1noc2ccc(C)cc12` (stereo not shown), the “% Inhibition @ 10 uM” value was -10%. `O=C(CCCN1C(=O)c2ccccc2C1=O)NC1CCCCC1` was tested, and the “% Inhibition @ 10 uM” value was 1.7%. With `COc1cc(OC)c(CN2CCCC3CCCCC32)cc1Br` (stereo not shown) the “% Inhibition @ 10 uM” value was -2.95%. For `Cc1n[nH]c(C)c1S(=O)(=O)N1CCc2ccccc2C1`, the “% Inhibition @ 10 uM” value was -2.17%. In the case of `Cc1nn(-c2ccccc2)c(O)c1C(=O)c1ccc(Cl)cc1`, the “% Inhibition @ 10 uM” value was 3.61%. For `CC/N=c1\c(NC(=O)c2cc(OC)cc(OC)c2)c(O)oc2ccccc12`, the “% Inhibition @ 10 uM” value was 2.94%. In the case of `CCc1ccc2ncc(S(=O)(=O)c3ccc(Cl)cc3)c(N3CCN(C)CC3)c2c1`, the “% Inhibition @ 10 uM” value was -11.7%. For `CCN1CCN(Cc2cccs2)CC1`, the “% Inhibition @ 10 uM” value was 1.28%. `CCN1CCN(c2c(S(=O)(=O)c3ccc(Cl)cc3)cnc3cc(OC)c(OC)cc23)CC1` was tested, and the “% Inhibition @ 10 uM” value was -8.93%. In the case of `Cc1ccc(C(C#N)NC(=O)[C@H](CC(C)C)NC(=O)c2ccccc2)o1` (stereo partly shown), the “% Inhibition @ 10 uM” value was -6.46%. `O=C(CCC(=O)n1ncc2ccc(Cl)cc21)N1CCCCCC1` was tested, and the “% Inhibition @ 10 uM” value was 2.25%. `COc1cc2oc3ccccc3c2cc1N(CC(=O)N(C)C)S(=O)(=O)c1ccc(C)cc1` was tested, and the “% Inhibition @ 10 uM” value was 3.57%. For `O=C(CC1(O)C(=O)N(CN2CCOCC2)c2ccccc21)c1ccccc1` (stereo not shown), the “% Inhibition @ 10 uM” value was 3.65%. `Cc1ccc(NC(=O)c2cc3cc(Br)ccc3oc2=O)cc1` was tested, and the “% Inhibition @ 10 uM” value was 4.6%. `CC(=O)Nc1ccc2c(c1)C(=O)N(c1ccc(C(=O)O)cc1)C2=O` was tested, and the “% Inhibition @ 10 uM” value was 1.9%. For `CS(=O)(=O)N(CC(=O)NCc1ccccc1Cl)c1ccc(F)cc1`, the “% Inhibition @ 10 uM” value was -0.564%. For `CC(C)Cc1ccc2c(N)c(C(=O)c3ccccc3)sc2n1`, the “% Inhibition @ 10 uM” value was 0.219%. For `CCC(=O)NCCc1nc2ccccc2n1Cc1ccccc1`, the “% Inhibition @ 10 uM” value was -4.49%. `O=C(CSc1nc2c(c(=O)n1Cc1ccccc1)SCC2)NCCc1ccccc1` was tested, and the “% Inhibition @ 10 uM” value was -2.26%. In the case of `O=[N+]([O-])c1ccc(/C=C/c2ccc3ccccc3n2)s1`, the “% Inhibition @ 10 uM” value was 10.8%. For `O=C(Nc1nccs1)c1cc2c(Cl)nc3ccccc3c2s1`, the “% Inhibition @ 10 uM” value was 0.232%. For `Cc1cccc(NC(=O)CN2C(=O)S/C(=C/c3cccc(F)c3)C2=O)c1`, the “% Inhibition @ 10 uM” value was -1.79%. In the case of `Cn1nc(C(F)(F)F)cc1C(=O)Nc1ccc(S(=O)(=O)NC23CC4CC(CC(C4)C2)C3)cc1`, the “% Inhibition @ 10 uM” value was 2.69%. In the case of `OCCNc1ncnc2sc3c(c12)CCCC3`, the “% Inhibition @ 10 uM” value was -2.62%. With `Cc1oc2c(c1C(=O)NCCC1=CCCCC1)C(=O)c1ccccc1C2=O` the “% Inhibition @ 10 uM” value was -5.41%. For `Cc1ccc(S(=O)(=O)NCCCCCc2nc3ccccc3[nH]2)cc1`, the “% Inhibition @ 10 uM” value was -3.48%. In the case of `Cc1c(O)ccc(-c2[nH]ncc2-c2nc3ccccc3s2)c1O`, the “% Inhibition @ 10 uM” value was -10.8%. With `CN(CCc1ccccn1)Cc1ccc2c(c1)OCO2` the “% Inhibition @ 10 uM” value was 3.73%. For `CCN(CC)/C(=N\OC(=O)c1ccc(C)cc1)c1nonc1N`, the “% Inhibition @ 10 uM” value was -1.84%.
